Assay results reported in publication PMC4274898.
No constants are given. Whether binding was seen depends on the method and setting. Some results given as binding are weak or reduced against the parent protein; the word gives no strength.

T1: ARF4 (Arabidopsis thaliana) (UniProt Q9ZTX9)
T1 sequence: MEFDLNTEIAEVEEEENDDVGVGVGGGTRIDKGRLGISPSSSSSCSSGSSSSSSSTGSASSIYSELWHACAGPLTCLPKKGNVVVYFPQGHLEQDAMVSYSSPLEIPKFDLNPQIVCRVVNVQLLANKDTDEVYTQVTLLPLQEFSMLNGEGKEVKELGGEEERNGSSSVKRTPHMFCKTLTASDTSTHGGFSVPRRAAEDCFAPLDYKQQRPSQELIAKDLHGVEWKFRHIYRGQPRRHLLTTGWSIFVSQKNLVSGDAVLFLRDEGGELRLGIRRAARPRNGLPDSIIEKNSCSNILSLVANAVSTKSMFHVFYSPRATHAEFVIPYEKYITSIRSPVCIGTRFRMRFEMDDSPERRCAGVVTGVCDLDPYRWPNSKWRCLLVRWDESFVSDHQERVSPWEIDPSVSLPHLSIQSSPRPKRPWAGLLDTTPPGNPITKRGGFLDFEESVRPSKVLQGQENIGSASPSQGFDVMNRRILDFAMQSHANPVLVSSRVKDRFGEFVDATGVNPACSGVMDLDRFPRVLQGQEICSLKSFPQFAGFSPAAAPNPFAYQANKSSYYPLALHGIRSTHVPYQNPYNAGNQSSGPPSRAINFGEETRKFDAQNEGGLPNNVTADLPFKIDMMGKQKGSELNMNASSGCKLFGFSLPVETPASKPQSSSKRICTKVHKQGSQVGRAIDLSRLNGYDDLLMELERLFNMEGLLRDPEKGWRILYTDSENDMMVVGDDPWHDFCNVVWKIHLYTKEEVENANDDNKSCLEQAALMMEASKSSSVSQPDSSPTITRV

T2: ARF19 (Arabidopsis thaliana) (UniProt Q8RYC8)
T2 sequence: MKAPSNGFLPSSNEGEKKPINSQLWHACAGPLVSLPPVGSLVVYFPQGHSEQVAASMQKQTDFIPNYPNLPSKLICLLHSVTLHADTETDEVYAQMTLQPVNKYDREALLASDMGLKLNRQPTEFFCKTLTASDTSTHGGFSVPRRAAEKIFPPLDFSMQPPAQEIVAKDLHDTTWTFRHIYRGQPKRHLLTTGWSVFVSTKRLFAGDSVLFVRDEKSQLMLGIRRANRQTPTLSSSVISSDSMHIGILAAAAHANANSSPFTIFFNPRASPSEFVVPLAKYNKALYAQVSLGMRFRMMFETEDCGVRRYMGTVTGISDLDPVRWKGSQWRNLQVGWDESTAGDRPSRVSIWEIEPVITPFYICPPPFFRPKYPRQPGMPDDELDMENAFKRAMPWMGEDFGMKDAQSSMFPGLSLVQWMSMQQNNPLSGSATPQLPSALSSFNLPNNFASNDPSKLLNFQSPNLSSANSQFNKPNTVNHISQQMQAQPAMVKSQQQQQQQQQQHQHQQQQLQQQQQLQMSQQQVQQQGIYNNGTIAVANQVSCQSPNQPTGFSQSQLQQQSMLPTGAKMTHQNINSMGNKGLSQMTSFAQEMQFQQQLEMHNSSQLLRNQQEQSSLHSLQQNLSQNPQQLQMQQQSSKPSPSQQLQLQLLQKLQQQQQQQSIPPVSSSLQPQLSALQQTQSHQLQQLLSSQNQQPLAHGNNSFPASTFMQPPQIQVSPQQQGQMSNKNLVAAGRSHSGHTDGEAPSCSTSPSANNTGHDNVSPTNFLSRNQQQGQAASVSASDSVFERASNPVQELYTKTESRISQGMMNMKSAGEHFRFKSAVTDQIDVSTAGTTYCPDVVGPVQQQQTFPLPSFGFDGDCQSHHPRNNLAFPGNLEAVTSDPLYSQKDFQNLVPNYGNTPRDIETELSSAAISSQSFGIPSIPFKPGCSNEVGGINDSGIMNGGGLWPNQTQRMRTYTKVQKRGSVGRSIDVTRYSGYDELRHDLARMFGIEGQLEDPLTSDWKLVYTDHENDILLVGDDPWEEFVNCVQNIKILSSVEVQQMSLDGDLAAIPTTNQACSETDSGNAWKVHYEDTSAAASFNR

T3: ARF12 (Arabidopsis thaliana) (UniProt Q9XID4)
T3 sequence: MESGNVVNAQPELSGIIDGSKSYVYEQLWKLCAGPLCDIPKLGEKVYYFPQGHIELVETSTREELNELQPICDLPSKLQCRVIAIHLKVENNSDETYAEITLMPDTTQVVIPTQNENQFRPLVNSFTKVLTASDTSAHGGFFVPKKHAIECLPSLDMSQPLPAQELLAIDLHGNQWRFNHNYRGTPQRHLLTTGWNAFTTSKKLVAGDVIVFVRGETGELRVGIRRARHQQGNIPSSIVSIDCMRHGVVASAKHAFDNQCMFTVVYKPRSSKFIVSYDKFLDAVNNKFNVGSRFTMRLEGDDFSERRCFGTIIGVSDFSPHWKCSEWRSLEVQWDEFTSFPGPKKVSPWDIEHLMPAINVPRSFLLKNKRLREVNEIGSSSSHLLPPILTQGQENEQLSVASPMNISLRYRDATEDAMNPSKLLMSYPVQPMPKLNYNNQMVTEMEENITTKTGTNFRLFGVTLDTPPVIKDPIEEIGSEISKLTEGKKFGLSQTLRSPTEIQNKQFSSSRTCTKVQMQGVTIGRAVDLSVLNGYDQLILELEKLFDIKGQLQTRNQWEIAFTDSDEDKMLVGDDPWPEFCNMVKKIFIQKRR

B1: Aux/IAA16 (protein, UniProt O24407 1-236)
chain: MINFEATELRLGLPGGNHGGEMAGKNNGKRGFSETVDLKLNLSSTAMDSVSKVDLENMKEKVVKPPAKAQVVGWPPVRSFRKNVMSGQKPTTGDATEGNDKTSGSSGATSSASACATVAYVKVSMDGAPYLRKIDLKLYKTYQDLSNALSKMFSSFTIGNYGPQGMKDFMNESKLIDLLNGSDYVPTYEDKDGDWMLVGDVPWEMFVDSCKRIRIMKGSEAIGLAPRALEKCKNRS
B2: Aux/IAA18 (protein, UniProt O24408 1-267)
chain: MEGYSRNGEISPKLLDLMIPQERRNWFHDEKNSVFKTEEKKLELKLGPPGEEDDDESMIRHMKKEPKDKSILSLAGKYFSPSSTKTTSHKRTAPGPVVGWPPVRSFRKNLASGSSSKLGNDSTTSNGVTLKNQKCDAAAKTTEPKRQGGMFVKINMYGVPIGRKVDLSAHNSYEQLSFTVDKLFRGLLAAQRDFPSSIEDEKPITGLLDGNGEYTLTYEDNEGDKMLVGDVPWQMFVSSVKRLRVIKTSEISSALTYGNGKQEKMRR
B3: Aux/IAA19 (protein, UniProt O24409 1-197)
chain: MEKEGLGLEITELRLGLPGRDVAEKMMKKRAFTEMNMTSSGSNSDQCESGVVSSGGDAEKVNDSPAAKSQVVGWPPVCSYRKKNSCKEASTTKVGLGYVKVSMDGVPYLRKMDLGSSQGYDDLAFALDKLFGFRGIGVALKDGDNCEYVTIYEDKDGDWMLAGDVPWGMFLESCKRLRIMKRSDATGFGLQPRGVDE
B4: Aux/IAA20 (protein, UniProt O24410 1-175)
chain: MGRGRSSSSSSIESSSKSNPFGASSSTRNLSTDLRLGLSFGTSSGTQYFNGGYGYSVAAPAVEDAEYVAAVEEEEENECNSVGSFYVKVNMEGVPIGRKIDLMSLNGYRDLIRTLDFMFNASILWAEEEDMCNEKSHVLTYADKEGDWMMVGDVPWEMFLSTVRRLKISRANYHY
B5: Aux/IAA26 (protein, UniProt Q8LAL2 1-269)
chain: MEGCPRNREIGPKLLDLIPQGRKWYQEDKNNTDQEKKLELRLGPPGGDEEDHSAIKKKNTEIRNIKKETEDKSFHCFNGNHFSPSNKTTSVPHISQKRTAPGPVVGWPPVRSFRKNLASTSSSKLGNESSHGGQINKSDDGEKQVETKKEGMFVKINMDGVPIGRKVDLNAYNSYEQLSFVVDKLFRGLLAAQRDISDGQGEEKPIIGLLDGKGEFTLTYEDNEGDKMLVGDVPWQMFVSSVKRLRVIKSSEISSALTFGCSKQEKMMH
B6: Aux/IAA27 (protein, UniProt Q9ZSY8 1-305)
chain: MSVSVAAEHDYIGLSEFPTMEATTMSDKTKTRDNNNGLNFKATELRLGLPGSESPERVDSRFLALNKSSCPVSGAKRVFSDAINDSNKWVFSPGSTTATGDVGSGSGPRTSVVKDGKSTTFTKPAVPVKEKKSSATAPASKAQVVGWPPIRSFRKNSMASSQSQKPGNNSETEEAEAKSGPEQPCLYVKVSMEGAPYLRKIDLKTYKSYLELSSALEKMFSCFTIGQFGSHGGCGRDGLNESRLTDLLRGSEYVVTYEDKDSDWMLVGDVPWEMFICSCKKLRIMKSSEAIGLAPRVMEKCRSRN
B7: Aux/IAA28 (protein, UniProt Q9XFM0 1-175)
chain: MEEEKRLELRLAPPCHQFTSNNNINGSKQKSSTKETSFLSNNRVEVAPVVGWPPVRSSRRNLTAQLKEEMKKKESDEEKELYVKINMEGVPIGRKVNLSAYNNYQQLSHAVDQLFSKKDSWDLNRQYTLVYEDTEGDKVLVGDVPWEMFVSTVKRLHVLKTSHAFSLSPRKHGKE
B8: Aux/IAA29 (protein, UniProt Q93WC4 1-251)
chain: MELDLGLSLSPHKSSKLGFNFDLNKHCAIEGAASCLGTEKLRFEATFGLGNVEENCYMPKQRLFALNGQPNEEDEDPLESESSIVYDDEEENSEVVGWPPVKTCMIKYGSYHHRHIRNHHHCPYHHRGRRITAMNNNISNPTTATVGSSSSSSISSRSSMYVKVKMDGVAIARKVDIKLFNSYESLTNSLITMFTEYEDCDREDTNYTFTFQGKEGDWLLRGDVTWKIFAESVHRISIIRDRPCAYTRCLF
B9: Aux/IAA30 (protein, UniProt Q9M1R4 1-172)
chain: MGRGRSSSSSSIESSCKSNPFGVSSSNTRNLSTDLRLGLSFGSSSGQYYNGGDNHEYDGVGAAEEMMIMEEEEQNECNSVGSFYVKVNMEGVPIGRKIDLLSLNGYHDLITTLDYMFNASILWAEEEDMCSEKSHVLTYADKEGDWMMVGDVPWEMFLSSVRRLKISRAYHY
B10: Aux/IAA3 (protein, UniProt Q38822 1-189)
chain: MDEFVNLKETELRLGLPGTDNVCEAKERVSCCNNNNKRVLSTDTEKEIESSSRKTETSPPRKAQIVGWPPVRSYRKNNIQSKKNESEHEGQGIYVKVSMDGAPYLRKIDLSCYKGYSELLKALEVMFKFSVGEYFERDGYKGSDFVPTYEDKDGDWMLIGDVPWEMFICTCKRLRIMKGSEAKGLGCGV
B11: Aux/IAA31 (protein, UniProt Q8H174 1-158)
chain: MEVSNSCSSFSSSSVDSTKPSPSESSVNLSLSLTFPSTSPQREARQDWPPIKSRLRDTLKGRRLLRRGDDTSLFVKVYMEGVPIGRKLDLCVFSGYESLLENLSHMFDTSIICGNRDRKHHVLTYEDKDGDWMMVGDIPWDMFLETVRRLKITRPERY

target: T1, ARF4 (Arabidopsis thaliana); experiment: two-hybrid; S. cerevisiae AH109 co-transformed with pGBKT7-ARF (bait) and pGADT7-Aux/IAA (prey); growth on SD/-Ade-His-Leu-Trp against SD/-Leu/-Trp; at least 10 independent colonies; serial dilutions for strength

**Q.** B1 was tested. Which binding did it give?
**A.** binds

**Q.** For B2, which binding is on record?
**A.** binds

**Q.** For B3, which binding is on record?
**A.** binds

**Q.** B4 was tested. Which binding did it give?
**A.** binds

**Q.** B5 was tested. Which binding did it give?
**A.** binds

**Q.** For B6, which binding is on record?
**A.** binds

**Q.** With B7 as the binder, how does the binding read?
**A.** binds

**Q.** Which binding does the source give for B8 here?
**A.** binds

**Q.** B9 was tested. Which binding did it give?
**A.** binds

**Q.** For B10, which binding is on record?
**A.** binds

**Q.** With B11 as the binder, how does the binding read?
**A.** binds

target: T2, ARF19 (Arabidopsis thaliana); experiment: as above

**Q.** With B1 as the binder, how does the binding read?
**A.** binds

**Q.** Which binding does the source give for B2 here?
**A.** binds

**Q.** For B3, which binding is on record?
**A.** binds

**Q.** Which binding does the source give for B4 here?
**A.** binds

**Q.** With B5 as the binder, how does the binding read?
**A.** binds

**Q.** How did the binding turn out when B6 was run?
**A.** binds

**Q.** How did the binding turn out when B7 was run?
**A.** binds

**Q.** B8 was tested. Which binding did it give?
**A.** binds

**Q.** With B9 as the binder, how does the binding read?
**A.** binds

**Q.** Which binding does the source give for B10 here?
**A.** binds

**Q.** With B11 as the binder, how does the binding read?
**A.** binds

target: T3, ARF12 (Arabidopsis thaliana); experiment: as above

**Q.** B1 was tested. Which binding did it give?
**A.** no binding

**Q.** B2 was tested. Which binding did it give?
**A.** no binding

**Q.** How did the binding turn out when B3 was run?
**A.** no binding

**Q.** For B4, which binding is on record?
**A.** no binding

**Q.** For B5, which binding is on record?
**A.** no binding

**Q.** With B6 as the binder, how does the binding read?
**A.** no binding

**Q.** With B7 as the binder, how does the binding read?
**A.** no binding

**Q.** For B8, which binding is on record?
**A.** no binding

**Q.** B9 was tested. Which binding did it give?
**A.** no binding

**Q.** How did the binding turn out when B10 was run?
**A.** no binding

**Q.** With B11 as the binder, how does the binding read?
**A.** no binding
